From the supplement of paper PMC4967469
IC50 is the fitted dose that halves viability relative to control wells, and lower means more sensitive; fits outside the tested doses are given as limits. AUC is the area under the same curve over the 256-fold range up to the top dose, as a fraction: 1 means no effect, lower means more sensitive. For some of these results: An inferred top dose is not printed in the source and was worked back from the curve model. For some of these results: An entry number marks a drug with two screens in the source, which often give different values.

Assays:
Assay in all cases: Viability of human cancer cell lines after 72 h of drug (GDSC screen)
CUDC-101 = compound: C#Cc1cccc(Nc2ncnc3cc(OC)c(OCCCCCCC(=O)NO)cc23)c1 [CUDC-101]; conditions: top dose 5.12 µM; top dose inferred
Description: (§1)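 Human cancer cell lines in 384-well plates, medium with 10% serum, drug for 72 h over a 256-fold dose range (nine 2-fold or five 4-fold steps up to the top dose). Adherent lines were fixed and stained with the nucleic acid dye Syto60, suspension lines read with resazurin; signal relative to control wells, capped at 0 and 100%. One two-parameter sigmoid per drug and line, fitted in a mixed model over all curves with the slope shared within a line.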

AC220 = compound: CC(C)(C)c1cc(NC(=O)Nc2ccc(-c3cn4c(n3)sc3cc(OCCN5CCOCC5)ccc34)cc2)no1 [AC220]; conditions: top dose 1.024 µM; top dose inferred
Description: as §1

RDEA119 = compound: COc1cc(F)c(F)c(Nc2ccc(I)cc2F)c1NS(=O)(=O)C1(C[C@H](O)CO)CC1 [RDEA119]; conditions: top dose 5 µM, top dose inferred
Description: as §1

JNK-9L = compound: Fc1cc(-c2ccnc(Nc3ccc(-n4cnc(N5CCOCC5)n4)cc3)n2)cc(N2CCOCC2)c1 [JNK-9L]; conditions: top dose 5.12 µM; top dose inferred
Description: as §1

OSU-03012 = compound: NCC(=O)Nc1ccc(-n2nc(C(F)(F)F)cc2-c2ccc3c(ccc4ccccc43)c2)cc1 [OSU-03012]; conditions: top dose 16 µM; top dose inferred
Description: as §1

5-Fluorouracil = compound: O=c1[nH]cc(F)c(=O)[nH]1 [5-Fluorouracil]; conditions: top dose 32 µM; top dose inferred
Description: as §1

QS11 = compound: OC[C@H](Cc1ccccc1)Nc1nc(Oc2ccc3c(c2)CCC3)nc2c1ncn2Cc1ccc(-c2ccccc2)cc1 [QS11]; conditions: top dose 10.24 µM
Description: as §1

| Cell Line | AUC (CUDC-101) | IC50 (CUDC-101) | AUC (AC220) | IC50 (AC220) | AUC (RDEA119; screen: GDSC drug entry 1014) | IC50 (RDEA119; screen: GDSC drug entry 1014) | AUC (RDEA119; screen: GDSC drug entry 1526) | IC50 (RDEA119; screen: GDSC drug entry 1526) | AUC (JNK-9L) | IC50 (JNK-9L) | AUC (OSU-03012) | IC50 (OSU-03012) | AUC (5-Fluorouracil) | IC50 (5-Fluorouracil) | AUC (QS11) | IC50 (QS11) |
| --- | --- | --- | --- | --- | --- | --- | --- | --- | --- | --- | --- | --- | --- | --- | --- | --- |
| CHSA8926 (chondrosarcoma, adherent) | 0.882 | > 5.12 µM | 0.974 | > 1.02 µM | 0.886 | > 5 µM | 0.867 | > 5 µM | 0.935 | > 5.12 µM | 0.98 | > 16 µM | 0.944 | > 32 µM | 0.98 | > 10.2 µM |
| CL-11 (large intestine, adherent) | 0.907 | > 5.12 µM | 0.986 | > 1.02 µM | 0.509 | 0.332 µM | 0.406 | 0.167 µM | 0.913 | > 5.12 µM | 0.864 | > 16 µM | 0.947 | > 32 µM | 0.979 | > 10.2 µM |
| CMK (acute myeloid leukaemia, suspension) | 0.357 | 0.138 µM | 0.939 | > 1.02 µM | 0.963 | > 5 µM | 0.975 | > 5 µM | 0.588 | 0.535 µM | 0.61 | 1.9 µM | 0.615 | 3.92 µM | 0.885 | 8.25 µM |
| COLO-320-HSR (large intestine, suspension) | 0.739 | 1.38 µM | 0.987 | > 1.02 µM | 0.991 | > 5 µM | 0.991 | > 5 µM | 0.589 | 0.541 µM | 0.73 | 4.06 µM | 0.884 | 26.8 µM | 0.897 | 9.72 µM |
| COLO-668 (small cell lung carcinoma, adherent) | 0.618 | 0.675 µM | 0.97 | > 1.02 µM | 0.873 | 4.82 µM | 0.927 | > 5 µM | 0.569 | 0.494 µM | 0.814 | 8.72 µM | 0.696 | 7.11 µM | 0.951 | > 10.2 µM |
| COLO-678 (large intestine, semi-adherent) | 0.839 | 5.06 µM | 0.983 | > 1.02 µM | 0.705 | 1.42 µM | 0.803 | 3.37 µM | 0.7 | 1.39 µM | 0.896 | > 16 µM | 0.964 | > 32 µM | 0.98 | > 10.2 µM |
| COLO-679 (melanoma, adherent) | 0.762 | 2.04 µM | 0.971 | > 1.02 µM | 0.409 | 0.171 µM | 0.294 | 0.0759 µM | 0.511 | 0.345 µM | 0.651 | 2.76 µM | 0.885 | > 32 µM | 0.753 | 3.8 µM |
| COLO-680N (oesophagus, adherent) | 0.958 | > 5.12 µM | 0.977 | > 1.02 µM | 0.949 | > 5 µM | 0.906 | > 5 µM | 0.561 | 0.486 µM | 0.703 | 4.18 µM | 0.974 | > 32 µM | 0.972 | > 10.2 µM |
| COLO-684 (endometrium, suspension) | 0.556 | 0.463 µM | 0.924 | > 1.02 µM | 0.977 | > 5 µM | 0.976 | > 5 µM | 0.602 | 0.633 µM | 0.771 | 6.92 µM | 0.71 | 8.52 µM | 0.912 | > 10.2 µM |
| COLO-783 (melanoma, adherent) | 0.761 | 1.75 µM | 0.99 | > 1.02 µM | 0.741 | 1.48 µM | 0.798 | 2.28 µM | 0.918 | > 5.12 µM | 0.991 | > 16 µM | 0.99 | > 32 µM | 0.987 | > 10.2 µM |
| COLO-792 (melanoma, adherent) | 0.818 | 2.83 µM | 0.978 | > 1.02 µM | – | – | 0.537 | 0.394 µM | 0.902 | > 5.12 µM | 0.984 | > 16 µM | 0.975 | > 32 µM | 0.813 | 5.44 µM |
| COLO-824 (breast, adherent) | 0.623 | 0.702 µM | 0.986 | > 1.02 µM | 0.839 | 3.5 µM | 0.987 | > 5 µM | 0.603 | 0.615 µM | 0.758 | 5.65 µM | 0.825 | 19.7 µM | 0.905 | > 10.2 µM |
| COR-L95 (small cell lung carcinoma, adherent) | 0.907 | > 5.12 µM | 0.983 | > 1.02 µM | 0.977 | > 5 µM | 0.985 | > 5 µM | 0.769 | 2.24 µM | 0.961 | > 16 µM | 0.767 | 13.7 µM | 0.967 | > 10.2 µM |
| COR-L105 (lung adenocarcinoma, adherent) | 0.336 | 0.101 µM | 0.977 | > 1.02 µM | – | – | 0.808 | 3.31 µM | 0.482 | 0.282 µM | 0.72 | 4.9 µM | 0.757 | 13.3 µM | 0.858 | > 10.2 µM |
